Laboratory results as given in PMC7694937.
Results are given in words; binding and its absence hold for the method and conditions named. Binding seen in cells or lysates may run through a third protein. Some results given as binding are weak or reduced against the parent protein; the word gives no strength. For some of these results: Tags and fused reporters may be left off the sequences shown.

Protein sequences, listed by entry. Tags and fused reporters are not part of them.
UniProt O00303: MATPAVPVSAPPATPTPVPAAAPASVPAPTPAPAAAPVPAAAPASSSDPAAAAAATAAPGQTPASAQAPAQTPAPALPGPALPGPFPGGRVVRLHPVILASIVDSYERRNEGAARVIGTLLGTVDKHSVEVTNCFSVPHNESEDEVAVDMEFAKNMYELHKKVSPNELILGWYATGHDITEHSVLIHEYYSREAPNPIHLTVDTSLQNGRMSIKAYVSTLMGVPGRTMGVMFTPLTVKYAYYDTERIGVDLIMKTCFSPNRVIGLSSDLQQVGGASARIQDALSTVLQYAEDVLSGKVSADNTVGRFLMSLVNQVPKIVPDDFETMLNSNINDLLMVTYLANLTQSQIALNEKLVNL
UniProt P49023: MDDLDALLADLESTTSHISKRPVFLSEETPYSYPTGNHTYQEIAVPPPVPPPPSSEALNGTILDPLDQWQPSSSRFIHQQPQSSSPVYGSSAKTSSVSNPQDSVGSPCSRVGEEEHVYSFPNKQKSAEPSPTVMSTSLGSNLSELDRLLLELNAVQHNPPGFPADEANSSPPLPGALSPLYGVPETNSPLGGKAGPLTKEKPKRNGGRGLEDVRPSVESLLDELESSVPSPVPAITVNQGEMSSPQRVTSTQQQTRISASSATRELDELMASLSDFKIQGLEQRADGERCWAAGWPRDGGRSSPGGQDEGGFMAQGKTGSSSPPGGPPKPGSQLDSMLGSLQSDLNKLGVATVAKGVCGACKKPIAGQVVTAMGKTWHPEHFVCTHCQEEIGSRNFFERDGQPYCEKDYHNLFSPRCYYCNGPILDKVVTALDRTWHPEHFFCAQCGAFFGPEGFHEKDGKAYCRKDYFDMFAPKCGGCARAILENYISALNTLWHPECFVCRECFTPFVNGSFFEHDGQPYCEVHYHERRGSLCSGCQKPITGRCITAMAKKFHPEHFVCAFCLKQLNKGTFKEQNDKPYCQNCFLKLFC

What was measured:
Experiment in all cases: co-IP; HEK293T cells co-transfected with Flag- and HA-tagged plasmids; lysis in 50 mM Tris-HCl pH 7.5, 300 mM NaCl, 1% Triton-X, 5 mM EDTA, 10% glycerol; IP with anti-Flag antibody and Protein-G Sepharose, immunoblot with anti-HA and anti-Flag; in some panels cells treated with DMSO or ATP (5 mM) for 2 h; Fig. 6d-g shown as pairs of IPs whose antibodies the legend does not name
Flag-P2X7R(29–595) = molecular target: T1, Flag-P2X7R(29–595) (UniProt Q99572)
T1 sequence: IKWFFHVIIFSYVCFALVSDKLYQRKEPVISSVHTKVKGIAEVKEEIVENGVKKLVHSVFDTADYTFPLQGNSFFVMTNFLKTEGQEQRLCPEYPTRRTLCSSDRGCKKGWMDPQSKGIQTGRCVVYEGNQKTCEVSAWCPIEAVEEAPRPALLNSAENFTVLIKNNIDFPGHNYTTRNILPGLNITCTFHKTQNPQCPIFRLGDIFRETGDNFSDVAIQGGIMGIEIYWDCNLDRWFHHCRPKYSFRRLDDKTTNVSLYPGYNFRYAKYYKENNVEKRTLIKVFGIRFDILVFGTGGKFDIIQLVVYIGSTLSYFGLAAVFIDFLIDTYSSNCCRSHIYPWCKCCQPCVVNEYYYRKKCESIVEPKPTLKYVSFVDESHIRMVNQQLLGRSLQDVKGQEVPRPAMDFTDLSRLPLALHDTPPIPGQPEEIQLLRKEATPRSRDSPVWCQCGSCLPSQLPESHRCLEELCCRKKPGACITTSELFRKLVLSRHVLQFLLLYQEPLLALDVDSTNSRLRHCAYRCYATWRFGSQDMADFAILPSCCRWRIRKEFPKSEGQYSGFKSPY

Flag-EIF3S5 (human) = Flag-EIF3S5 (human) (UniProt O00303)
Flag-P2X7R(47–595) = molecular target: T2, Flag-P2X7R(47–595) (UniProt Q99572)
T2 sequence: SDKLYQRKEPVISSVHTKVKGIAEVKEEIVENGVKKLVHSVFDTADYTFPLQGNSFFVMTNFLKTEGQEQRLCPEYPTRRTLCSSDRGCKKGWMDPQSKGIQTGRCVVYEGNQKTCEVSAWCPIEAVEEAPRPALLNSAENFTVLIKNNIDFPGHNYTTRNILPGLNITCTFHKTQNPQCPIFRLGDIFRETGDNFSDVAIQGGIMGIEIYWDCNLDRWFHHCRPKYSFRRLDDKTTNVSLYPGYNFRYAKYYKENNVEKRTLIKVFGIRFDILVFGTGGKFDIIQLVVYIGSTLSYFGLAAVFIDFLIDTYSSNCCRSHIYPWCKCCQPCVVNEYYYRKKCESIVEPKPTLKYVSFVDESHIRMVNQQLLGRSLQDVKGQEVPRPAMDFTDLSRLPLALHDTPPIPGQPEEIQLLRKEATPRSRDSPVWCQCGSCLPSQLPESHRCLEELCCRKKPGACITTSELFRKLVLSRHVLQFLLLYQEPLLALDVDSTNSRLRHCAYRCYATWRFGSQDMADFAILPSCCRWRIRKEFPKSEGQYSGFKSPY

Flag-P2X7R(34–595) = molecular target: T3, Flag-P2X7R(34–595) (UniProt Q99572)
T3 sequence: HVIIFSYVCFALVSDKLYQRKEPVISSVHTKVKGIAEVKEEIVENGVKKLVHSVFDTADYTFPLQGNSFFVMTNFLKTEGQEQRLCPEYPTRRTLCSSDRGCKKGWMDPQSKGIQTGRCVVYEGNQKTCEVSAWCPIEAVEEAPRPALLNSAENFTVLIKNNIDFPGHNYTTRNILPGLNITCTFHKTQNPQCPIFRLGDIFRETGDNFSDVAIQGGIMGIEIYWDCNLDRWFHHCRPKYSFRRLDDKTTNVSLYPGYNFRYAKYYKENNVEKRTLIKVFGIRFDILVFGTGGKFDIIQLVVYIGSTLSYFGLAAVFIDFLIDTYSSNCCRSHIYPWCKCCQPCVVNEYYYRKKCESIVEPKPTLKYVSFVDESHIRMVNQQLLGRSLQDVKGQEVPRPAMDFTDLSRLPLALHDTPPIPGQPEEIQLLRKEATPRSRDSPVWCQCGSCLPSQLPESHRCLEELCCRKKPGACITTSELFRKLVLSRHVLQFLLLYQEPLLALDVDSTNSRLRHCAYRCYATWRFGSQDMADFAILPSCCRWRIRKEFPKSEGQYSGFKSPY

Substance: HA-Paxillin (from UniProt P49023 1-591)
- binding (Flag-P2X7R(29–595)): binds
- binding (Flag-EIF3S5 (human)): binds
- binding (Flag-P2X7R(47–595)): no binding
- binding (Flag-P2X7R(34–595)): no binding
